Test results taken from PubChem BioAssay AID652104 (National Center for Advancing Translational Sciences (NCATS), 2013).
The campaign covered roughly 410,000 compounds. About 7,200 (1.8%) were called active. The shares of active, inactive and inconclusive entries below differ from those in the screen. Calls follow the shape of the dose curve; as a rule, active = well fitted activation curve with a large enough effect; inconclusive = small, poorly fitted or top-dose-only effect, or another doubt; inactive = no such curve, though single readings can be large or run the other way. No potency is given beside an inconclusive call; the fits are too rough.
Potency is read from the fitted curve at half-maximal effect; tags tell the direction and shape of the fitted curve.

Assay: qHTS of TDP-43 Inhibitors; also: nearly all actives have a fitted effect of over 50% in size
Conditions: TDP-43 expressing yeast growth rescue, BacTiter-Glo, 24 h; series mostly up to 46.1 µM
How it was run: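 Yeast cells expressing TDP-43 under galactose induction are exposed to compounds for 24 hr at 30 deg C. BacTiter-Glo luminescence measures growth, so protective compounds score as activators.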
In the case of `CCC(=O)c1ccc(N2CCN(C(=O)c3cc([N+](=O)[O-])ccc3F)CC2)c(F)c1`, the Potency is reported as active: 12.6 µM. For `CN1C(=O)CC(=O)N(C)c2cc(S(=O)(=O)N(C)Cc3ccccc3)ccc21`, the Potency was “inactive”. In the case of `c1ccc(CNc2ncnc3scc(-c4cccs4)c23)nc1`, the Potency is reported as active: 17.8 µM. With `COc1ccc(C(=O)OCc2cc(=O)n3ccsc3n2)cc1F` the Potency was inconclusive [activator, single point]. In the case of `Cc1cccc(C)c1-n1nnnc1C1c2ccccc2C(=O)N1CCOc1ccccc1` (stereo not given), the Potency is reported as inconclusive [activator, partial curve, poor fit]. In the case of `CC(=O)Nc1cc(-c2ccccc2F)cn2c(-c3ccccc3)cnc12`, the Potency is reported as active: 20 µM. With `COC1=Cc2c(ccc3ccc(=O)oc23)OC1(C)C` the Potency was active: 12.6 µM. In the case of `CC1(C)CC(=O)C(C=NCCN2CCNC2=O)=C(O)C1`, the Potency is reported as “inactive”. With `COc1cc(NC(=O)Cc2ccccc2)ccc1NC(=O)c1ccco1` the Potency was inconclusive [activator, full curve, poor fit]. With `CCc1ccc(-c2cn3c(n2)sc2cc(C(=O)NCCc4ccc(OC)cc4OC)ccc23)cc1` the Potency was “inactive”. For `CCCCCc1ccc2cc(C#N)ccc2n1`, the Potency was inconclusive [activator, partial curve]. In the case of `Cc1ccccc1NC(=S)c1nc2ccccc2[nH]1`, the Potency is reported as active: 17.8 µM. In the case of `COc1ccc(NC(=O)CCS(=O)(=O)c2nc(-c3cccs3)cc(C(F)(F)F)n2)cc1OC`, the Potency is reported as inconclusive [activator, partial curve]. For `COc1ccc(N(C(=O)/C=C\C(=O)Nc2ccc(Cl)cc2)C(C(=O)NCc2ccco2)c2ccc(C)cc2)cc1` (stereo not given), the Potency was “inactive”. With `COc1ccc(C(=O)OCC2CC(c3ccccc3)=NO2)cc1OC` (stereo not given) the Potency was inconclusive [activator, single point]. For `COc1nc(Nc2cccc(C(F)(F)F)c2)nc(OC)n1`, the Potency was active: 14.1 µM. With `CN(C(=O)Nc1ccc(Cl)c(Cl)c1)c1ccccc1C(=O)O` the Potency was inconclusive [activator, partial curve]. For `Cc1ccc(C(=O)Nc2cccc(-c3nc4ncccc4o3)c2)cc1`, the Potency was inconclusive [activator, partial curve]. For `COc1ccc(C(=O)c2sc(Nc3ccccc3F)nc2N)cc1`, the Potency was active: 20 µM. In the case of `COc1ccccc1/C=C/C(=O)c1ccc(NC(C)=O)cc1`, the Potency is reported as inconclusive [activator, single point]. For `CN(CC(=O)Nc1ccc([N+](=O)[O-])cc1Br)Cc1c(F)cccc1Cl`, the Potency was inconclusive [activator, single point]. In the case of `COc1ccc2oc(=O)c(C(=O)NCc3cccnc3)cc2c1`, the Potency is reported as “inactive”. For `COc1ccc(CCNC(=O)c2oc3ccc(OC)cc3c2C)cc1`, the Potency was active: 3.98 µM. In the case of `COc1ccccc1C(=O)N1CCN(C2CCN(Cc3ccccc3)CC2)CC1`, the Potency is reported as “inactive”. With `O=S1(=O)N[C@@H](Cc2ccccc2)COc2cccc(N3CCN(Cc4ccccc4F)CC3)c21` the Potency was “inactive”. For `COc1cc(/C=C(\C#N)C(=O)NC2CCCCC2C)ccc1OS(=O)(=O)c1ccc(C)cc1` (stereo not given), the Potency was “inactive”. With `CCOC(=O)c1csc(Nc2nc3ccc(F)cc3s2)n1` the Potency was inconclusive [activator, full curve, poor fit]. With `CC(C)C1C(=O)N(Cc2cn(CCC3OCCO3)nn2)CCS(=O)(=O)N1Cc1ccc(-c2ccc(F)nc2)cc1` (stereo not given) the Potency was inconclusive [activator, single point]. With `CC1CCCCC1NC(=O)CSC1=Nc2ccccc2C2CC=NN12` (stereo not given) the Potency was inconclusive [activator, single point]. In the case of `COc1ccc(/C(C)=N/Nc2nc(C)cc(-c3ccccc3)n2)cc1`, the Potency is reported as inconclusive [activator, partial curve]. In the case of `O=C(Nc1cccc(NC(=O)c2cc([N+](=O)[O-])ccc2Cl)n1)c1cc([N+](=O)[O-])ccc1Cl`, the Potency is reported as inconclusive [activator, partial curve]. In the case of `COc1ccccc1OC(C)C(=O)N1CCC(c2nc3ccccc3s2)CC1` (stereo not given), the Potency is reported as active: 14.1 µM. In the case of `[S-]C(=Nc1ccc(Cl)cc1)N[n+]1ccccc1`, the Potency is reported as inconclusive [activator, partial curve]. With `CC(C)OCCCn1c(=S)[nH]c2cc3c(cc2c1=O)OCO3` the Potency was inconclusive [activator, partial curve]. For `COc1ccc(OC)c(/C=C2\S/C(=N/NC(=O)c3ccc4ccccc4c3)NC2=O)c1`, the Potency was inconclusive [activator, partial curve]. In the case of `CCc1ccc(NC(=O)CSCCN2C(=O)c3ccccc3C2=O)cc1`, the Potency is reported as inconclusive [activator, single point]. In the case of `CCOc1ccc2nc(Nc3nc(CSc4nnnn4-c4ccccc4)cc(=O)[nH]3)nc(C)c2c1`, the Potency is reported as “inactive”. For `CCN(C(=O)c1cccn(Cc2cccc(Cl)c2)c1=O)c1ccccc1`, the Potency was inconclusive [activator, partial curve, poor fit]. For `O=C(Nc1nnc(-c2cccs2)o1)c1cccc(C(F)(F)F)c1`, the Potency was active: 7.08 µM. With `CC1(C)CC2CC(C)(CN2C(=O)c2ccc([N+](=O)[O-])cc2[N+](=O)[O-])C1` (stereo not given) the Potency was inconclusive [activator, partial curve]. With `CC1=CCC2C(=O)N(c3ccc(Br)cc3C)C(=O)C2C1` (stereo not given) the Potency was inconclusive [activator, single point]. For `CC(C)(C)c1nnc(N/N=C/c2ccccc2O)n(N)c1=O`, the Potency was “inactive”. For `CC(OC(=O)C1CCN(c2ccc(C(F)(F)F)cn2)CC1)C(=O)Nc1cccc([N+](=O)[O-])c1` (stereo not given), the Potency was inconclusive [activator, single point]. In the case of `Cc1ccc(CC(=O)N2CCN(c3ccccc3F)CC2)cc1`, the Potency is reported as inconclusive [activator, partial curve]. In the case of `CCn1c(/C=C2\C(=O)N(C(C)C)c3ccccc32)nc2ccccc2c1=O`, the Potency is reported as inconclusive [activator, single point].
